Data as given in the supplement of paper PMC4967469.

Experiments:
Assay in all cases: Viability of human cancer cell lines after 72 h of drug (GDSC screen)
Temozolomide = compound: Cn1nnc2c(C(N)=O)ncn2c1=O [Temozolomide]; conditions: top dose 30 µM
Procedure: (§1)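 Human cancer cell lines in 384-well plates, medium with 10% serum, drug for 72 h over a 256-fold dose range (nine 2-fold or five 4-fold steps up to the top dose). Adherent lines were fixed and stained with the nucleic acid dye Syto60, suspension lines read with resazurin; signal relative to control wells, capped at 0 and 100%. One two-parameter sigmoid per drug and line, fitted in a mixed model over all curves with the slope shared within a line.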

IPA-3 = compound: Oc1ccc2ccccc2c1SSc1c(O)ccc2ccccc12 [IPA-3]; conditions: top dose 32 µM; top dose inferred
Procedure: as §1

Tubastatin A = compound: CN1CCc2c(c3ccccc3n2Cc2ccc(C(=O)NO)cc2)C1 [Tubastatin A]; conditions: top dose 20 µM
Procedure: as §1

ZG-10 = compound: CN(C)C/C=C/C(=O)Nc1ccc(C(=O)Nc2cccc(Nc3nccc(-c4cccnc4)n3)c2)cc1 [ZG-10]; conditions: top dose 10 µM; top dose inferred
Procedure: as §1

XL-880 = compound: COc1cc2c(Oc3ccc(NC(=O)C4(C(=O)Nc5ccc(F)cc5)CC4)cc3F)ccnc2cc1OCCCN1CCOCC1 [XL-880]; conditions: top dose 5.12 µM; top dose inferred
Procedure: as §1

CI-1040 = compound: O=C(NOCC1CC1)c1ccc(F)c(F)c1Nc1ccc(I)cc1Cl [CI-1040]; conditions: top dose 10 µM; top dose inferred
Procedure: as §1

Row | Cell Line | AUC (Temozolomide) | IC50 (Temozolomide) [µM] | AUC (IPA-3) | IC50 (IPA-3) [µM] | AUC (Tubastatin A) | IC50 (Tubastatin A) [µM] | AUC (ZG-10) | IC50 (ZG-10) [µM] | AUC (XL-880) | IC50 (XL-880) [µM] | AUC (CI-1040) | IC50 (CI-1040) [µM]
1 | UACC-893 (breast, adherent) | 0.961 | > 30 | 0.98 | > 32 | 0.976 | > 20 | 0.904 | > 10 | 0.927 | > 5.12 | 0.896 | > 10
2 | RCM-1 (large intestine, adherent) | 0.983 | > 30 | 0.984 | > 32 | 0.985 | > 20 | 0.886 | > 10 | 0.863 | > 5.12 | 0.601 | 1.26
3 | VMRC-RCZ (kidney, adherent) | 0.978 | > 30 | 0.765 | 13.7 | 0.971 | > 20 | 0.766 | 4.28 | 0.672 | 1.05 | 0.885 | > 10
4 | Hs683 (glioma, adherent) | 0.987 | > 30 | 0.941 | > 32 | 0.983 | > 20 | 0.908 | > 10 | 0.643 | 0.8 | 0.967 | > 10
5 | ASH-3 (thyroid, adherent) | 0.976 | > 30 | 0.671 | 5.98 | 0.987 | > 20 | 0.791 | 4.48 | 0.985 | > 5.12 | 0.693 | 2.17
6 | MDA-MB-468 (breast, adherent) | 0.984 | > 30 | 0.987 | > 32 | 0.98 | > 20 | 0.674 | 1.87 | 0.764 | 1.79 | 0.795 | 4.43
7 | CP50-MEL-B (melanoma, adherent) | 0.987 | > 30 | 0.922 | > 32 | 0.963 | > 20 | 0.796 | 4.61 | 0.658 | 0.876 | 0.348 | 0.238
8 | KYSE-150 (oesophagus, adherent) | 0.979 | > 30 | 0.88 | 30.7 | 0.978 | > 20 | 0.883 | 9.98 | 0.794 | 2.24 | 0.943 | > 10
9 | TT (thyroid, adherent) | 0.975 | > 30 | 0.983 | > 32 | 0.982 | > 20 | 0.907 | > 10 | 0.782 | 3.07 | 0.908 | > 10
10 | NCI-H292 (lung adenocarcinoma, adherent) | 0.949 | > 30 | 0.979 | > 32 | 0.841 | 18.4 | 0.788 | 5.42 | 0.497 | 0.314 | 0.609 | 1.33
11 | NCI-H810 (large cell lung carcinoma, adherent) | 0.923 | > 30 | 0.868 | 27.1 | 0.686 | 4.04 | 0.66 | 1.71 | 0.504 | 0.329 | 0.972 | > 10
12 | SK-MEL-3 (melanoma, adherent) | 0.983 | > 30 | 0.885 | > 32 | 0.909 | > 20 | 0.738 | 3.39 | 0.664 | 0.988 | 0.699 | 2.5
13 | CaR-1 (large intestine, adherent) | 0.971 | > 30 | 0.978 | > 32 | 0.976 | > 20 | 0.755 | 5.06 | 0.754 | 2.58 | 0.89 | > 10
14 | HCC202 (breast, adherent) | 0.975 | > 30 | 0.924 | > 32 | 0.907 | > 20 | 0.834 | > 10 | 0.842 | > 5.12 | 0.948 | > 10
15 | H3118 (head and neck, adherent) | 0.972 | > 30 | 0.942 | > 32 | 0.905 | > 20 | 0.635 | 1.53 | 0.521 | 0.368 | 0.425 | 0.382
16 | ABC-1 (lung adenocarcinoma, adherent) | 0.974 | > 30 | 0.955 | > 32 | 0.966 | > 20 | 0.689 | 2.38 | 0.67 | 1.06 | 0.863 | > 10
17 | HCC38 (breast, adherent) | 0.985 | > 30 | 0.976 | > 32 | 0.91 | > 20 | 0.83 | 6.96 | 0.626 | 0.734 | 0.945 | > 10
18 | BT-20 (breast, adherent) | 0.98 | > 30 | 0.983 | > 32 | 0.979 | > 20 | 0.976 | > 10 | 0.923 | > 5.12 | 0.871 | > 10

Row | Cell Line | AUC (Temozolomide) | IC50 (Temozolomide) [µM] | AUC (IPA-3) | IC50 (IPA-3) [µM] | AUC (Tubastatin A) | IC50 (Tubastatin A) [µM] | AUC (ZG-10) | IC50 (ZG-10) [µM] | AUC (XL-880) | IC50 (XL-880) [µM] | AUC (CI-1040) | IC50 (CI-1040) [µM]
19 | UACC-62 (melanoma, adherent) | 0.966 | > 30 | 0.988 | > 32 | 0.985 | > 20 | 0.697 | 2.21 | 0.87 | 4.68 | 0.904 | > 10
20 | OVKATE (ovary, adherent) | 0.977 | > 30 | 0.979 | > 32 | 0.946 | > 20 | 0.889 | > 10 | 0.684 | 1.49 | 0.881 | > 10
21 | HEC-1 (endometrium, adherent) | 0.988 | > 30 | 0.891 | > 32 | 0.989 | > 20 | 0.704 | 2.29 | 0.872 | 4.54 | 0.975 | > 10
22 | RERF-LC-KJ (lung adenocarcinoma, adherent) | 0.981 | > 30 | 0.852 | 25.8 | 0.985 | > 20 | 0.825 | 6.21 | 0.801 | 2.58 | 0.871 | 9.95
23 | NCI-H1437 (lung adenocarcinoma, adherent) | 0.985 | > 30 | 0.957 | > 32 | 0.976 | > 20 | 0.816 | 5.84 | 0.767 | 1.98 | 0.543 | 0.821
24 | HCC1428 (breast, adherent) | 0.986 | > 30 | 0.987 | > 32 | 0.973 | > 20 | 0.844 | 8.15 | 0.986 | > 5.12 | 0.937 | > 10
25 | H2722 (mesothelioma, adherent) | 0.981 | > 30 | 0.92 | > 32 | 0.958 | > 20 | 0.672 | 2.08 | 0.703 | 1.34 | 0.939 | > 10
26 | CHP-212 (neuroblastoma, adherent) | 0.958 | > 30 | 0.738 | 8.98 | 0.896 | > 20 | 0.861 | 7.44 | 0.983 | > 5.12 | 0.124 | 0.0455
27 | KYSE-220 (oesophagus, adherent) | 0.926 | > 30 | 0.981 | > 32 | 0.984 | > 20 | 0.714 | 2.62 | 0.678 | 1.04 | 0.82 | 6.13
28 | COLO-783 (melanoma, adherent) | 0.99 | > 30 | 0.964 | > 32 | 0.988 | > 20 | 0.838 | 6.41 | 0.97 | > 5.12 | 0.683 | 1.99
29 | A2780 (ovary, semi-adherent) | 0.982 | > 30 | 0.709 | 7.97 | 0.886 | > 20 | 0.739 | 3.1 | 0.365 | 0.134 | 0.679 | 2.02
30 | CCK-81 (large intestine, adherent) | 0.989 | > 30 | 0.929 | > 32 | 0.972 | > 20 | 0.843 | 6.45 | 0.763 | 1.74 | 0.921 | > 10
31 | CAL-12T (non-small cell lung carcinoma, adherent) | 0.975 | > 30 | 0.656 | 5.73 | 0.951 | > 20 | 0.95 | > 10 | 0.627 | 0.751 | 0.823 | 6.83
32 | M059J (glioma, adherent) | 0.953 | > 30 | 0.809 | 18.4 | 0.957 | > 20 | 0.748 | 3.44 | 0.599 | 0.614 | 0.945 | > 10
33 | U-2-OS (osteosarcoma, adherent) | 0.982 | > 30 | 0.982 | > 32 | 0.982 | > 20 | 0.766 | 4.02 | 0.983 | > 5.12 | 0.761 | 3.84
34 | SCC-4 (head and neck, adherent) | 0.981 | > 30 | 0.975 | > 32 | 0.924 | > 20 | 0.833 | 8.17 | 0.901 | > 5.12 | 0.859 | > 10
35 | SW948 (large intestine, adherent) | 0.957 | > 30 | 0.972 | > 32 | 0.957 | > 20 | 0.98 | > 10 | 0.798 | 3.88 | 0.854 | > 10
36 | NUGC-4 (stomach, adherent) | 0.986 | > 30 | 0.922 | > 32 | 0.947 | > 20 | 0.815 | 5.51 | 0.533 | 0.394 | 0.824 | 5.97

IC50 is the fitted dose that halves viability relative to control wells, and lower means more sensitive; where the fit passes the top or lowest dose, that dose stands as a limit. AUC is the area under the same curve over the 256-fold range up to the top dose, as a fraction; values near 1 show little effect. For part of these data: Any top dose called inferred was calculated from the reported fits.
